# Reference: the supplement of paper PMC4604168 (melanoma cell lines)
# Some of the results follow. Most values come without repeats; read them as rough.
# System: C32
# Assay: cell count relative to DMSO control; melanoma cells; higher = more viable cells
# Details: library dose: low library concentration; 72 h
# 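Further: cell number obtained by counting DAPI-stained nuclei in high-throughput microscope images with image analysis software, screen run in 1,536-well plates.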
row,SMILES,cell count [%]
1,"Cc1cn(-c2cc(NC(=O)c3ccc(C)c(Nc4nccc(-c5cccnc5)n4)c3)cc(C(F)(F)F)c2)cn1 [nilotinib] + C[C@]1(O)C[C@@H](c2nc(-c3ccc4ccc(-c5ccccc5)nc4c3)c3c(N)nccn32)C1 [OSI906] (first compound 0.2 µM, partner dose 0.4 µM)",86.4
2,"CC(C)C[C@H](NC(=O)[C@H](Cc1ccccc1)NC(=O)c1cnccn1)B(O)O [Bortezomib] + Nc1nc(F)nc2c1ncn2[C@@H]1O[C@H](CO)[C@@H](O)[C@@H]1O [fludarabine] (first compound 0.001 µM, partner dose 0.2 µM)",94.3
3,"COc1ccc(C2=N[C@@H](c3ccc(Cl)cc3)[C@@H](c3ccc(Cl)cc3)N2C(=O)N2CCNC(=O)C2)c(OC(C)C)c1 [Nutlin-3] + CNC(=O)c1cc(Oc2ccc(NC(=O)Nc3ccc(Cl)c(C(F)(F)F)c3)cc2)ccn1 [sorafenib] (first compound 0.1 µM, partner dose 0.4 µM)",82.6
4,"COc1ccc(C2=N[C@@H](c3ccc(Cl)cc3)[C@@H](c3ccc(Cl)cc3)N2C(=O)N2CCNC(=O)C2)c(OC(C)C)c1 [Nutlin-3] + COCC[n+]1c2c(n(Cc3cnccn3)c1C)C(=O)c1ccccc1C2=O [YM155] (first compound 0.1 µM, partner dose 0.0004 µM)",85.6
5,"COc1ccc(C2=N[C@@H](c3ccc(Cl)cc3)[C@@H](c3ccc(Cl)cc3)N2C(=O)N2CCNC(=O)C2)c(OC(C)C)c1 [Nutlin-3] + Nc1nc(F)nc2c1ncn2[C@@H]1O[C@H](CO)[C@@H](O)[C@@H]1O [fludarabine] (first compound 0.1 µM, partner dose 0.2 µM)",98.6
6,"COc1ccc(C2=N[C@@H](c3ccc(Cl)cc3)[C@@H](c3ccc(Cl)cc3)N2C(=O)N2CCNC(=O)C2)c(OC(C)C)c1 [Nutlin-3] + CC(C)C[C@H](NC(=O)[C@H](Cc1ccccc1)NC(=O)c1cnccn1)B(O)O [Bortezomib] (first compound 0.1 µM, partner dose 0.001 µM)",79.7
7,"CC(C)C[C@H](NC(=O)[C@H](Cc1ccccc1)NC(=O)c1cnccn1)B(O)O [Bortezomib] + CNC(=O)c1cc(Oc2ccc(NC(=O)Nc3ccc(Cl)c(C(F)(F)F)c3)cc2)ccn1 [sorafenib] (first compound 0.001 µM, partner dose 0.4 µM)",99.7
8,"Cc1cc(Nc2cc(N3CCN(C)CC3)nc(/C=C/c3ccccc3)n2)n[nH]1 + Nc1ccn([C@@H]2O[C@H](CO)[C@@H](O)C2(F)F)c(=O)n1 [gemcitabine] (first compound 0.04 µM, partner dose 0.0004 µM)",100
9,"CC(C)C[C@H](NC(=O)[C@H](Cc1ccccc1)NC(=O)c1cnccn1)B(O)O [Bortezomib] + Cc1nc(Nc2ncc(C(=O)Nc3c(C)cccc3Cl)s2)cc(N2CCN(CCO)CC2)n1 [dasatanib] (first compound 0.001 µM, partner dose 0.004 µM)",68.9
10,"COc1ccc(C2=N[C@@H](c3ccc(Cl)cc3)[C@@H](c3ccc(Cl)cc3)N2C(=O)N2CCNC(=O)C2)c(OC(C)C)c1 [Nutlin-3] + C[C@@H](Oc1cc(-c2cnn(C3CCNCC3)c2)cnc1N)c1c(Cl)ccc(F)c1Cl [Crizotinib] (first compound 0.1 µM, partner dose 0.2 µM)",89.7
11,"COc1ccc(C2=N[C@@H](c3ccc(Cl)cc3)[C@@H](c3ccc(Cl)cc3)N2C(=O)N2CCNC(=O)C2)c(OC(C)C)c1 [Nutlin-3] + OCc1c[nH]c2ccccc12 [Indole-3-carbinol] (first compound 0.1 µM, partner dose 0.8 µM)",70.8
12,"COc1ccc(C2=N[C@@H](c3ccc(Cl)cc3)[C@@H](c3ccc(Cl)cc3)N2C(=O)N2CCNC(=O)C2)c(OC(C)C)c1 [Nutlin-3] + CS(=O)(=O)CCNCc1ccc(-c2ccc3ncnc(Nc4ccc(OCc5cccc(F)c5)c(Cl)c4)c3c2)o1 [lapatinib] (first compound 0.1 µM, partner dose 0.8 µM)",113
13,"Cc1cn(-c2cc(NC(=O)c3ccc(C)c(Nc4nccc(-c5cccnc5)n4)c3)cc(C(F)(F)F)c2)cn1 [nilotinib] + CC(=O)c1c(C)c2cnc(Nc3ccc(N4CCNCC4)cn3)nc2n(C2CCCC2)c1=O [palbociclib] (first compound 0.2 µM, partner dose 0.04 µM)",88.8
14,"Cc1cn(-c2cc(NC(=O)c3ccc(C)c(Nc4nccc(-c5cccnc5)n4)c3)cc(C(F)(F)F)c2)cn1 [nilotinib] + CCN(CC)CCNC(=O)c1c(C)[nH]c(/C=C2\C(=O)Nc3ccc(F)cc32)c1C [sunitinib] (first compound 0.2 µM, partner dose 0.4 µM)",107
15,"Cc1cc(Nc2cc(N3CCN(C)CC3)nc(/C=C/c3ccccc3)n2)n[nH]1 + COc1ccc(Cl)c(Nc2nc3ccccc3nc2NS(=O)(=O)c2cccc(NC(=O)C(C)(C)N)c2)c1 [XL147] (first compound 0.04 µM, partner dose 0.8 µM)",89.1
16,"COc1ccc(C2=N[C@@H](c3ccc(Cl)cc3)[C@@H](c3ccc(Cl)cc3)N2C(=O)N2CCNC(=O)C2)c(OC(C)C)c1 [Nutlin-3] + NC1(c2ccc(-c3nc4ccn5c(=O)[nH]nc5c4cc3-c3ccccc3)cc2)CCC1 [MK2206] (first compound 0.1 µM, partner dose 0.4 µM)",82.2
17,"CC(C)C[C@H](NC(=O)[C@H](Cc1ccccc1)NC(=O)c1cnccn1)B(O)O [Bortezomib] + CS(=O)(=O)CCNCc1ccc(-c2ccc3ncnc(Nc4ccc(OCc5cccc(F)c5)c(Cl)c4)c3c2)o1 [lapatinib] (first compound 0.001 µM, partner dose 0.8 µM)",99.2
18,"CC(C)C[C@H](NC(=O)[C@H](Cc1ccccc1)NC(=O)c1cnccn1)B(O)O [Bortezomib] + C[C@]1(c2nc3c(C(N)=O)cccc3[nH]2)CCCN1 [Veliparib] (first compound 0.001 µM, partner dose 1.4 µM)",83.4
19,"Cc1cc(Nc2cc(N3CCN(C)CC3)nc(/C=C/c3ccccc3)n2)n[nH]1 + COCC[n+]1c2c(n(Cc3cnccn3)c1C)C(=O)c1ccccc1C2=O [YM155] (first compound 0.04 µM, partner dose 0.0004 µM)",82.4
20,"Cc1cn(-c2cc(NC(=O)c3ccc(C)c(Nc4nccc(-c5cccnc5)n4)c3)cc(C(F)(F)F)c2)cn1 [nilotinib] + CC(C)C[C@H](NC(=O)[C@H](Cc1ccccc1)NC(=O)c1cnccn1)B(O)O [Bortezomib] (first compound 0.2 µM, partner dose 0.001 µM)",108
21,"Cn1c(=O)n(-c2ccc(C(C)(C)C#N)cc2)c2c3cc(-c4cnc5ccccc5c4)ccc3ncc21 + CN1CCN(c2ccc3nc(-c4c(N)c5c(F)cccc5[nH]c4=O)[nH]c3c2)CC1 [Dovitinib] (first compound 0.004 µM, partner dose 0.1 µM)",103
22,"CC(C)C[C@H](NC(=O)[C@H](Cc1ccccc1)NC(=O)c1cnccn1)B(O)O [Bortezomib] + CCCS(=O)(=O)Nc1ccc(F)c(C(=O)c2c[nH]c3ncc(Cl)cc23)c1F [PLX4720] (first compound 0.001 µM, partner dose 0.08 µM)",90.3
23,"Cc1cn(-c2cc(NC(=O)c3ccc(C)c(Nc4nccc(-c5cccnc5)n4)c3)cc(C(F)(F)F)c2)cn1 [nilotinib] + OCc1c[nH]c2ccccc12 [Indole-3-carbinol] (first compound 0.2 µM, partner dose 0.8 µM)",98.9
24,"CC(C)C[C@H](NC(=O)[C@H](Cc1ccccc1)NC(=O)c1cnccn1)B(O)O [Bortezomib] + Cn1c(Nc2ccc(C(F)(F)F)cc2)nc2cc(Oc3ccnc(-c4ncc(C(F)(F)F)[nH]4)c3)ccc21 [CHIR265] (first compound 0.001 µM, partner dose 0.08 µM)",86.1
25,"Cc1cc(Nc2cc(N3CCN(C)CC3)nc(/C=C/c3ccccc3)n2)n[nH]1 + Cn1nnc2c(C(N)=O)ncn2c1=O [temozolomide] (first compound 0.04 µM, partner dose 2 µM)",95.9
26,"Cc1cn(-c2cc(NC(=O)c3ccc(C)c(Nc4nccc(-c5cccnc5)n4)c3)cc(C(F)(F)F)c2)cn1 [nilotinib] + Cn1nnc2c(C(N)=O)ncn2c1=O [temozolomide] (first compound 0.2 µM, partner dose 2 µM)",103
